Results taken from PubChem BioAssay AID1508623 (National Center for Advancing Translational Sciences (NCATS), 2021).
Hit rate of the full screen: of about 48,000 compounds, about 450 (0.94%) were called active. Inconclusive results (about 19%) are left out. The call rests on the fitted dose curve; in most records, active means well fitted inhibition curve with a large enough effect; inconclusive means small, poorly fitted or top-dose-only effect; inactive means no such curve, though single readings can be large or run the other way. The list shows a part of the results.

Assay: Primary qHTS for Identification of Small Molecule Inhibitors of Huntingtin Promoter Activity; further: nearly all actives have a fitted effect of over 50% in size
Conditions: HEK293 HTT promoter firefly luciferase reporter (activity 0% = vehicle and -100% = no light), 24 h; series mostly up to 57.5 µM; activity change, negative = inhibition: at the top concentration
Procedure, shortened: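 Firefly luciferase signal from promoter-reporter HEK293 cells was scaled between vehicle (0%) and zero RLU (-100%). Compounds were tested at final concentrations of up to 57.5 uM over 24 h at 37 degrees C. PTC124 at 50 uM final served as control inhibitor.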

| Compound | activity change, negative = inhibition |
| --- | --- |
| Cc1ccc(Nc2ccc(N3CCN(C(=O)c4cccc([N+](=O)[O-])c4)CC3)nn2)cc1 | inactive: -28.8% |
| O=C(CSc1ncc2c(n1)-c1ccccc1N(Cc1ccc(Cl)cc1)S2(=O)=O)c1ccc(Cl)cc1 | inactive: -15.6% |
| Cc1cccc(NC(=O)c2cccc(N3CCCS3(=O)=O)c2)c1 | inactive: 49.8% |
| O=C(COc1ccc(F)cc1)Nc1ccc(OCc2cc(=O)n3ccsc3n2)cc1 | inactive: -4.86% |
| Cc1ccc(CNC(=O)CN2Cc3ccccc3C2=O)cc1 | inactive: 5.54% |
| Cc1ccccc1NC(=O)Cn1c(=O)n(CCC(=O)N2CCc3ccccc3C2)c(=O)c2ccccc21 | inactive: -12.1% |
| COc1ccc(NC(=O)CCS(=O)(=O)c2cc3c(cc2C)NC(=O)CO3)cc1Cl | inactive: -6.1% |
| Cc1ccc(C2CC(=O)n3nc(-c4ccc(F)cc4)nc3S2)cc1 (configuration not stated) | inactive: 81.4% [at 11.5 µM] |
| Cc1ccc(Cl)cc1NC(=O)c1sc2nc(C)c(C)c(C)c2c1N | inactive: 19.6% |
| COc1ccc(C2c3c(-c4ccccc4)n[nH]c3C(=O)N2c2ccc(C(=O)O)cc2)c(OC)c1 (configuration not stated) | inactive: -9.17% |
| Cc1ccc(NC(=O)Cn2c(=O)n(CCC(=O)N3CCc4ccccc4C3)c(=O)c3ccccc32)c(C)c1 | inactive: -18.2% |
| COc1cc(NC(=O)Cn2c(-c3ccccc3)cc(C(C)=O)c2C)cc(OC)c1 | inactive: -22.2% |
| COC(=O)c1ccc2c(c1)sc(=NC(=O)c1ccc(S(=O)(=O)N3CCCCC3)cc1)n2C | inactive: 0.55% |
| OCCN(CCO)c1nc(N2CCCCC2)c2nc(N(CCO)CCO)nc(N3CCCCC3)c2n1 | inactive |
| Cc1ccc(-c2c(CN3CCN(c4cccc(C)c4C)CC3)csc2C)cc1 | inactive: -17.4% |
| Cc1cccc(C)c1NC(=O)CSc1nc(-c2cccs2)cc(C(F)(F)F)n1 | inactive: -23.3% |
| Cc1cn2c(=O)cc(COc3ccc(C(C)(C)C)cc3)nc2s1 | inactive: -12.8% |
| CC(C)CCn1c(SCc2c(F)cccc2Cl)nc2ccsc2c1=O | inactive: -7.74% |
| CN(c1nccc(=O)[nH]1)C1CCN(c2nc3ccccc3n2Cc2ccc(F)cc2)CC1 | inactive |
| N#Cc1ccccc1Cn1c(SCC(=O)NCc2ccccc2)nc2ccccc21 | inactive: -11.9% |
| CCc1cccc2c(-c3ccccc3)nc(SCC(=O)Nc3ccc(OC)cc3)nc12 | inactive: -19.3% |
| CCOc1ccc2nc(NC(=O)c3nc(SC(C)C)ncc3Cl)sc2c1 | inactive: -15.3% |
| C[N+](C)(C)CC(=O)O | inactive: -5.02% |
| CC1CCN(C(=O)Cn2c(=O)n(-c3ccc(Cl)cc3)c(=O)c3c4c(sc32)CCC4)CC1 | inactive: 16.7% |
| O=C(Cn1c(=O)c2cccn2c2ccc(F)cc21)NCc1cccc(Cl)c1 | inactive: 1.65% |
| O=C(O)c1ccccc1C(=O)Nc1ccc(S(=O)(=O)Nc2nccs2)cc1 | inactive: -3.39% |
| Cc1ccccc1NC(=O)Cn1c(=O)n(CCCCCC(=O)NCc2ccc3c(c2)OCO3)c(=O)c2sccc21 | inactive: -19.8% |
